In PubChem BioAssay AID485344 (National Center for Advancing Translational Sciences (NCATS), 2010):
Where “and” joins values, the source holds several entries; their conditions need not be identical. Equal values may be shown once. In all, about 340,000 compounds went through this assay and about 6,900 (2%) were called active. No stated cut-off is given here; in the data, active means inhibition above about 30%; inactive means below that, where a call was filed. The list shows a part of the results, in another mix than the full data. The source gives no active or inactive call for entries shown without one.

What follows are compounds tested against D(2) dopamine receptor (Homo sapiens) (UniProt P14416) (assay: HTS Assay for Allosteric Antagonists of the Human D2 Dopamine Receptor: Primary Screen for Antagonists). Details: HEK293 TREx D2 cells, calcium flux, dopamine EC80; at 10 µM; stronger effect = higher value.
Outline: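 HEK293 T-REx D2 cells, tet-induced, calcium dye no-wash. Cpd pintool add, 180 s kinetic, then EC80 DA, 180 s kinetic. Ca flux read.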
Further: 0% is about no effect.

Chain of UniProt P14416 (P14416 whole entry, looked up): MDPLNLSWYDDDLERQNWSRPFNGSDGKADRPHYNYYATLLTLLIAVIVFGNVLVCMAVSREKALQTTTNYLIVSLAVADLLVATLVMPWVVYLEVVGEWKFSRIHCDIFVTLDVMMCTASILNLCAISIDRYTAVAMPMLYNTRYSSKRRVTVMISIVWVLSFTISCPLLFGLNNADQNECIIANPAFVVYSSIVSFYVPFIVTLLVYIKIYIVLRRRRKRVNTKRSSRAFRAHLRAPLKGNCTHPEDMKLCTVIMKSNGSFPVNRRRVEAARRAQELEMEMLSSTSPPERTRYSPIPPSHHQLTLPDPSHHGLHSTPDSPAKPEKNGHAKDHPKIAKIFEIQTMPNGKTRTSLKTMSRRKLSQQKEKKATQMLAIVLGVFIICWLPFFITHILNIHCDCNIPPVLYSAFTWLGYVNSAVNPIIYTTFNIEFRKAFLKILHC

| SMILES | inhibition |
| --- | --- |
| Cc1ccc(Cl)cc1-n1c(=O)cc(N2CCN(c3ccc(F)cc3)CC2)[nH]c1=O | 13.4% |
| Cc1ccc(-c2nc3sc(CCNS(=O)(=O)c4cc(F)ccc4F)c(C)n3n2)cc1 | 5.53% |
| CCn1cnc2sc(C(=O)N(Cc3ccc(N(C)C)cc3)Cc3ccco3)c(C)c2c1=O | active: 31.6% |
| CC(=O)N(Cc1cccnc1)c1nc2c(F)cc(F)cc2s1 | -17.2% |
| COc1ccc(OC)c(NC(=O)Cn2cnc3ccc(S(=O)(=O)N4CCC(C)CC4)cc3c2=O)c1 | -7.06% |
| O=C(Nc1cc(-c2nc3ccccc3s2)ccc1Cl)c1cc2ccccc2o1 | -5.93% |
| COc1ccc(CN2CC(C(=O)NCCN3CCN(c4ccccc4F)CC3)CC2=O)cc1 (stereo unspecified) | active: 78.4% |
| CCCOc1cccc(NC(=O)c2c(-c3ccccc3Cl)noc2C)c1 | 10.4% |
| CN(C(=O)CSc1nc2ccc(NC(=O)COc3ccc(Cl)cc3)cc2s1)c1ccccc1 | 4.72% |
| O=S(=O)(Nc1ccccc1C(F)(F)F)c1ccc(N2CCCCS2(=O)=O)cc1 | -18.8% |
| COc1cc(/C=C/c2nc(C#N)c(N3CCCCCC3)o2)cc(OC)c1OC | -12.7% |
| CCOc1ccccc1NC(=O)CSc1nc(=O)[nH]c2c1CCCC2 | -17.1% |
| O=C(CS(=O)(=O)c1cccc2nsnc12)Nc1ccccc1 | 20.9% |
| COc1ccccc1CNC(=O)CN1C(=O)COc2ccc(S(=O)(=O)Nc3ccccc3)cc21 | 9.33% |
| CC(C)(C)c1ccc(C(=O)NCCc2csc3nc(-c4ccccc4F)nn23)cc1 | -15% |
| COc1ccc(C2CC(=O)NC(NC(=O)c3ccc(Br)cc3)=N2)c(OC)c1OC (stereo unspecified) | 6.31% |
| CSCCC(NS(=O)(=O)c1ccc2c(c1)oc(=O)n2C)C(=O)N1CCN(c2cc(C)ccc2C)CC1 (stereo unspecified) | 10.4% |
| CCN(CC)S(=O)(=O)c1cccc(C(=O)NCC2(N3CCOCC3)CCCCC2)c1 | active: 39.1% |
| Cn1c(=O)n(C)c2cc(NS(=O)(=O)c3ccc(F)cc3)ccc21 | -19% |
| COc1cccc(C(=O)Nc2ccc3nc(SCC(=O)N4CCOCC4)sc3c2)c1 | 10.9% |
| CCCCS(=O)(=O)c1oc(-c2cccs2)nc1S(=O)(=O)c1ccccc1 | 12.9% |

| SMILES | inhibition |
| --- | --- |
| Cc1cc(C)n2c(Nc3ccc(Cl)cc3)c(-c3ccsc3)nc2n1 | -23.9% |
| Cc1ccc2c(CN3CCN(C(=O)c4ccc(F)cc4)CC3)cc(=O)oc2c1 | 14.6% |
| Cc1ccc(OCC(=O)N(c2ccc(C)cc2)S(=O)(=O)c2ccc(Cl)cc2)cc1 | 1.92% |
| COc1ccc(NC(=O)CSc2oc(-c3cccs3)nc2S(=O)(=O)c2ccc(C)cc2)c(OC)c1 | 5.69% |
| CCOc1ccccc1NC(=O)c1cc(=O)c2ccc(C)cc2o1 | -1.72% |
| CCSc1nc(-c2ccccc2OC)nc2c1Cc1c(CO)cnc(C)c1O2 | 21.1% |
| CCOC(=O)c1c(C)oc2ncnc(N3CCN(c4ccccc4F)CC3)c12 | -16.2% |
| O=C(Cc1cccs1)NC1CC(=O)N(c2cccc(F)c2)C1 (stereo unspecified) | -2.98% |
| O=C(/C=C\c1ccc2c(c1)OCO2)NC1CC(=O)N(c2ccc(Cl)cc2)C1 (stereo unspecified) | 4.29% |
| COc1ccc(C2(Nc3cccc(C(=O)O)c3C)C(=O)c3ccccc3C2=O)cc1 | 5.98% |
| COc1ccc(-c2csc3nc(-c4ccccc4C)oc(=O)c23)cc1OC | 1.69% |
| Cc1ccc(NC(=O)C2CCN(S(=O)(=O)c3c(C)noc3C)CC2)c(C)c1 | -8.19% |
| CC(=O)N1CCOc2cc(S(=O)(=O)NCc3ccc(C)cc3)c(Cl)cc21 | -10.7% |
| COc1cccc(-n2cc(C(=O)NCCc3ccc(C)cc3)c3ccccc3c2=O)c1 | 3.77% |
| COc1ccc2oc(=O)c(-c3csc(-c4ccc(Br)cc4)n3)cc2c1 | -19.4% |
| Cc1c(C)c2c(cc(C)c3c(-c4ccccc4)coc32)oc1=O | -23% |
| O=C(NC1CC(=O)N(c2cccc(F)c2)C1)C1CCCC1 (stereo unspecified) | -26.7% |
| Cc1ccc(CNC(=O)c2cccn2-c2nnc(N3CCCCC3)s2)cc1 | 3.99% |
| COc1ccccc1-n1ncc2c(=O)[nH]c(SCC(=O)Nc3ccc(Cl)cc3)nc21 | -1.12% |
| O=C(Nc1cc2c(cc1C(=O)c1ccccc1)OCCO2)c1ccc(Br)cc1 | 23.3% |
| CN(C)CCN(Cc1ccccc1)S(=O)(=O)c1ccc2[nH]c(=O)ccc2c1 | 8.37% |

| SMILES | inhibition |
| --- | --- |
| O=C(Nc1cccc(S(=O)(=O)C(F)F)c1)c1ccc(S(=O)(=O)N2CCCC2)cc1 | active: 58.5% |
| O=C(c1cccn1-c1nnc(N2CCCC2)s1)N1CCN(c2ccccc2)CC1 | 2.56% |
| O=S(=O)(NCc1ccc(F)cc1)c1ccc(-c2cnc(C3CC3)o2)cc1 | 7.26% |
| Cc1ccc(C(=O)c2cn(CC(=O)NC3CCCCC3)c3nc(C)ccc3c2=O)cc1 | -5.55% |
| Cc1c(C(=O)N2CCCC2)oc2c1-c1nn(CC(=O)NCCCOC(C)C)cc1CC2 | -9.86% and active: 34.6% |
| COc1cccc(C(=O)Nc2ccccc2C(=O)OCc2cc(=O)n3nc(C4CC4)sc3n2)c1 | -16% |
| COc1cc(OC)c2ccc(=O)oc2c1C(CCN1CCN(c2ccccc2)CC1)c1ccc(N(C)C)cc1 (stereo unspecified) | active: 61.6% |
| CCN(CC)CCCNC(=O)CN1C(=O)CCn2nc(-c3cn(C)c4ccccc34)cc21 | -4.57% |
| COc1ccc(-c2nc3c4ccccc4n(CC(=O)N4CCN(c5ccccc5OC)CC4)c(=O)n3n2)cc1 | -15.8% |
| COc1ccc(CCNC(=O)c2ccc3c(c2)c(C)c(C)n3Cc2ccc(F)cc2)c(OC)c1OC | 8.78% |
| Cc1ccc2nc(-c3ccccc3F)c(Nc3ccc(Cl)cc3)n2c1 | 19.5% |
| COc1cccc(-n2c(=O)c3c4c(sc3n(Cc3ccc(C)cc3)c2=O)CCCC4)c1 | -20.9% |
| COc1ccc(-c2nc(CSCC(=O)N3CCN(c4cccc(C)c4C)CC3)c(C)o2)cc1OC | 9.06% |
| CC1CCC(NC(=O)c2ccc3c(c2)N(Cc2cccc(Cl)c2)C(=O)c2ccccc2S3(=O)=O)CC1 (stereo unspecified) | -6.61% |
| CCCn1c(=O)sc2cc(NC(=O)COc3ccc(Cl)cc3)ccc21 | 15.8% |
| CCc1ccccc1NC(=O)Cn1nnc(C(=O)NCc2ccccc2Cl)c1N | -5.56% |
| COc1cccc(CN(C(=O)c2oc3cc(C)ccc3c2C)C2CCS(=O)(=O)C2)c1 (stereo unspecified) | -6.35% |
| CCN(CC)CC(C)CNC(=O)c1cc(-c2ccc(Br)s2)nc2ccccc12 (stereo unspecified) | -9.23% |
| CCOC(=O)c1ccc(NS(=O)(=O)c2ccc3c(c2)n(C)c(=O)n3C)cc1 | 5.64% |
